42 sequences from article PMC7819943, “Rice protein-binding microarrays: a tool to detect cis-acting elements near promoter regions in rice” can be followed below.

Some of the results follow.

The test deals with T1, OsWOX13 (Oryza sativa, UniProt Q5QMM3 1-267).
T1 sequence: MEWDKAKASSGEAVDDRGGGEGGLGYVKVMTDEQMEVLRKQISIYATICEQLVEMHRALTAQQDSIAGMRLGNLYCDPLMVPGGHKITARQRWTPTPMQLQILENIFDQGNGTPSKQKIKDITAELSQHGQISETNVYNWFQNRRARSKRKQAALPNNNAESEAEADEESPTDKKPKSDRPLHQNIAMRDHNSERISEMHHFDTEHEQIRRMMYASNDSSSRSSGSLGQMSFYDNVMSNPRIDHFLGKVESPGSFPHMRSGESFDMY
Kind of test: protein-binding microarray (RPBM); PBS, 2% BSA, 51.3 ng/ul salmon testes DNA, 50 uM zinc acetate, 200 nM TF, 25 C, 1 h; high values mean tight binding. As to conditions: protein: recombinant; tags: N-terminal polyhistidine and DsRed monomer fusion (pET32a); label: CyDye5-dUTP incorporated in the synthesized complementary strand; 3' TTTTT single-stranded linker to array surface; dsDNA, one strand shown. An outline of the steps: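 Binding signal is reported as fluorescence intensity per feature (arbitrary units) from an Axon 4000B scanner. Incubation used 200 nM of each Ni–NTA-purified, N-terminally polyhistidine- and DsRed-fused transcription factor from E. coli BL21-CodonPlus on a double-stranded custom Agilent array for 1 h at 25 °C, with 50 µM zinc acetate in the buffer, followed by washing.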
Turning to “TGCCTTACTCTAATTAGAAGTAATTACTTAATCAATTTCTCGGAGTCACCTAGTGCAG”, the binding signal is 24500 fluorescence intensity (a.u.). The result for “TATTTATAATTGTGGAGATTATGGGTACCAAATACCCACACGGAGTCACCTAGTGCAG” reads 13400 fluorescence intensity (a.u.). Regarding “TTTAACAATAAATAATTTGAAAACATGCCAACTTGAAGAACGGAGTCACCTAGTGCAG”, the binding signal was 11900 fluorescence intensity (a.u.). The figure for “AGGGGTGATCGATCAGCTAATTTCATTTCGCGGGGTGTAACGGAGTCACCTAGTGCAG” is 3190 fluorescence intensity (a.u.); for “AATTATTTGATTAGTTGTACACTTGTACATGCTACTGAAGCGGAGTCACCTAGTGCAG” it is 36800 fluorescence intensity (a.u.); for “CACTGATTTCTGAGTACTTAAACTCAGGGGCGGATCAACACGGAGTCACCTAGTGCAG” it is 8570 fluorescence intensity (a.u.). The result for “GTTTAAATTTAAACAAACCTGCAAATTTTAAACTGCTCGTCGGAGTCACCTAGTGCAG” reads 19000 fluorescence intensity (a.u.); that for “CGAAATTAAGGTTCACGTGAATTTACCCTTTTACCCTTCCCGGAGTCACCTAGTGCAG”, 4650 fluorescence intensity (a.u.); that for “AATCGGGTTAAATTAGATCTTATTGCGGTATGAATTGATTCGGAGTCACCTAGTGCAG”, 4110 fluorescence intensity (a.u.). The figure for “CATAAACAGTGAAAACTAATCATCATATTATCACTGCATCCGGAGTCACCTAGTGCAG” is 11500 fluorescence intensity (a.u.); for “GTGTAAATTGCGAGACAAATCTTTTAAGTGTAATTGCTCCCGGAGTCACCTAGTGCAG” it is 19700 fluorescence intensity (a.u.); for “ACTTCAATGTTAATTTAGTAAATTTATTTTAACATGACAACGGAGTCACCTAGTGCAG” it is 13800 fluorescence intensity (a.u.). Take “GAGAGATGGTGATGATAGACATGTGGGTCCCACGCTGACTCGGAGTCACCTAGTGCAG”: the binding signal is 5020 fluorescence intensity (a.u.). Consider “GCCATTGATGACAAAGACAACCTGGAAGATTACTGTTGCACGGAGTCACCTAGTGCAG”, for which the binding signal was 6620 fluorescence intensity (a.u.). In the case of “AACCTCAACCAATCACTAGTAACCTCAACATTTCGCACTACGGAGTCACCTAGTGCAG”, the binding signal was 4790 fluorescence intensity (a.u.). The figure for “TCAGTTACTAATTAGTACTATCAACAGAATCCACTGTACACGGAGTCACCTAGTGCAG” is 22700 fluorescence intensity (a.u.); for “CATTAGAGTGATTACTTTTGTTGGGGTACACAAATCATTGCGGAGTCACCTAGTGCAG” it is 12600 fluorescence intensity (a.u.). The result for “GTCAATCATTGTTCTATGAGCTAGATGATAAAGATGACAACGGAGTCACCTAGTGCAG” reads 8180 fluorescence intensity (a.u.).

“AACAATTAATGATTTTATTTCTGAATTTGCACGGAAGATACGGAGTCACCTAGTGCAG”: the binding signal is 12600 fluorescence intensity (a.u.). “CCGATTGAATGGGGATTTGTGTGGAAATGGCATAGGGAAGCGGAGTCACCTAGTGCAG”: the binding signal is 29000 fluorescence intensity (a.u.).

Turning to “CAACAATTAATTATAGTTTCGATTGAATTTCACACACATCCGGAGTCACCTAGTGCAG”, the binding signal is 5930 fluorescence intensity (a.u.). The result for “CTGAAATTTATGTTGCTGATGATCCTTTCAATGGGAGCTTCGGAGTCACCTAGTGCAG” reads 13000 fluorescence intensity (a.u.); that for “TTACCCACTAATTAGGTCCGTCACTAAATATGAAAAGCACCGGAGTCACCTAGTGCAG”, 17300 fluorescence intensity (a.u.); that for “ATGGCAAATTATTGCGATAAAATTGTTTTCTGCCGATCGACGGAGTCACCTAGTGCAG”, 8880 fluorescence intensity (a.u.). The figure for “AGACATGATAGGTTTATCCAATCCATCACCTCATCCCTCACGGAGTCACCTAGTGCAG” is 5250 fluorescence intensity (a.u.); for “GGATTTAGTAGGGATGATTGATGGATGACCCAAGGAAAGACGGAGTCACCTAGTGCAG” it is 18500 fluorescence intensity (a.u.); for “TTGTTTATTTAAGGTGTGATTGTATTTGGATCATGTTTTGCGGAGTCACCTAGTGCAG” it is 5500 fluorescence intensity (a.u.). On to “CGATAATTTGAATTTGAATTTCAAATTATGACAACTTTAACGGAGTCACCTAGTGCAG”, for which the binding signal was 38600 fluorescence intensity (a.u.). The figure for “AATAATTTGCCAATACCAACATTTTACTATAAATACTTATCGGAGTCACCTAGTGCAG” is 5410 fluorescence intensity (a.u.); for “CTAATTAATTAATTACATAAGCTAAGCGCCGGGAGTTTGCCGGAGTCACCTAGTGCAG” it is 48200 fluorescence intensity (a.u.). The figure for “ATCAATCACATTTGATCACCAACACTCAACTACTACAAATCGGAGTCACCTAGTGCAG” is 9200 fluorescence intensity (a.u.); for “GATTAATTAGTCCGCATATTTGCATGCCCATTTTGGTAGTCGGAGTCACCTAGTGCAG” it is 43800 fluorescence intensity (a.u.). The figure for “CGCTAAATTACCTACTTTCACAATTTTGAAGTATGTTATACGGAGTCACCTAGTGCAG” is 9250 fluorescence intensity (a.u.). For “TCAAAATTAACTTGTATAAGACTTAAATTTTGATATCCATCGGAGTCACCTAGTGCAG”, the binding signal was 11100 fluorescence intensity (a.u.). Turning to “GTGGATTGCATGATGAATCCTTTTGCACAATTGTTTGGCCCGGAGTCACCTAGTGCAG”, the binding signal is 3800 fluorescence intensity (a.u.). Regarding “CAACCTTAATTTCAATTTAAAACTACACCATACTTTCACCCGGAGTCACCTAGTGCAG”, the binding signal is 21900 fluorescence intensity (a.u.).

In the case of “ACTCTATTATTGAACGTGTATTACTGACACTGAAAGTTTCCGGAGTCACCTAGTGCAG”, the binding signal is 4850 fluorescence intensity (a.u.).

For “TTCCCTGATTTTCCCTCATCATCCCATCTCGTTTGTTCTTCGGAGTCACCTAGTGCAG”, the binding signal is 10200 fluorescence intensity (a.u.). For “GTGCATCACCAATCAAAACAGGAGGTGTTTGGAACTCCGTCGGAGTCACCTAGTGCAG”, the binding signal was 3870 fluorescence intensity (a.u.).

As for “CTCTTTTGATGAAAATTGAGGAAATCTGACTTAAAAGGCACGGAGTCACCTAGTGCAG”, the binding signal was 4400 fluorescence intensity (a.u.). For the sequence “ATTTGAAATTTAAATTTTAGCTTTTGCTTTAGTTTATTTGCGGAGTCACCTAGTGCAG”, the binding signal was 8720 fluorescence intensity (a.u.).

“TTAATTTAATTCAGGTGTGGAGTCCCCACCGGTGTTCCCTCGGAGTCACCTAGTGCAG”: the binding signal was 7880 fluorescence intensity (a.u.).
